Out of some 48,000 compounds screened, about 1,200 (2.5%) were called active. Roughly 2% stayed inconclusive and do not appear here.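 The calls were made as follows: active = activation of at least 60% and not above a set upper limit (about 1 call in 100 departs from these limits); inconclusive = activation of 40% to 60%, or above that upper limit; inactive = activation under 40%.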 Some of the results follow.

The assay deals with Probable G-protein coupled receptor 32 (Homo sapiens) (UniProt O75388). In words: qHTS for Agonists of Human Resolvin D1 Receptor DRV1. Also: 0% is about no effect. Particulars: CHO-K1 GPR32 beta-arrestin PathHunter luminescence, 90 min; at 76.9 µM; hits give high values; zero percent set by DMSO-only wells. Put shortly: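 Engineered CHO-K1 line co-expressing GPR32-ProLink and EA-beta-arrestin. Compound treatment lasted 90 min at 37 °C. Luminescence was recorded after 1 h with substrate at ambient temperature, relative to DMSO basal wells.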
Sequence of UniProt O75388 (O75388 whole entry, looked up): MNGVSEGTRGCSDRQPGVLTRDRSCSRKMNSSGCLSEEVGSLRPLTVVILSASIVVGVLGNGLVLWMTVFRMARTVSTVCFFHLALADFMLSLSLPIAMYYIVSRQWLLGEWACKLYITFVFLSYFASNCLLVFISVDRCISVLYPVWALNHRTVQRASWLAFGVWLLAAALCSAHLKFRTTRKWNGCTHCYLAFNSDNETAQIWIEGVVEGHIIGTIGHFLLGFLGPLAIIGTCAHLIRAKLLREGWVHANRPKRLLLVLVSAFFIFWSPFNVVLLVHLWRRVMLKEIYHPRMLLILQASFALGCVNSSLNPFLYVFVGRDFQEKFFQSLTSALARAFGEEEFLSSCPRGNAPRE
On the technique in general: In qHTS, concentration-response curves come from the screen itself.
On to `Cc1ccccc1Nc1c(-c2ccc(Br)cc2O)nc2sccn12`, for which the activation is inactive: -2.01%.

With `O=C(Nc1ccc(Cl)c(-c2nc3ccccc3o2)c1)c1ccc(-c2cccc([N+](=O)[O-])c2)o1`, the activation is inactive: -3.01%.

As for `COc1ccccc1N1CCN(C(c2ccc(Cl)cc2)c2nnc(-c3cccc(F)c3)o2)CC1` (stereo not given), the activation is inactive: -22.5%.

Consider `CCCSc1oc(-c2ccco2)nc1S(=O)(=O)c1ccc(Cl)cc1`, for which the activation is inactive: -33.6%.

Turning to `COc1ccccc1CNC(=O)c1cnc(N(C)C)nc1`, the activation is inactive: -13.5%.

Take `COc1ccc(CC(=O)Nc2sc3c(c2C(=O)Nc2cccc(C)c2)CCCCC3)cc1`: the activation is inactive: -1.89%.

On to `CCCCN(CC)CCCNC(=O)CN1C(=O)CSc2ccc(S(=O)(=O)N3CCOCC3)cc21`, for which the activation is inactive: -13.8%.

Turning to `CCOC(=O)c1cc(-c2ccc(OC)c(S(=O)(=O)NC3CCCCC3)c2)on1`, the activation was inactive: -19.5%.

As for `COc1ccccc1N(CC(=O)N1CCC(C)CC1)S(=O)(=O)c1ccc(C)cc1`, the activation was inactive: -13.2%.

Consider `c1ccc2sc(SSc3nc4ccccc4s3)nc2c1`, for which the activation was inactive: 41%.

Consider `COc1ccc(CCNC(=O)CN2C(=O)COc3ccc(C)cc32)cc1OC`, for which the activation is inactive: 13%.

Regarding `CCN(C(=O)Cn1nc(Cc2ccncc2)c2ccccc2c1=O)c1cccc(Cl)c1`, the activation was inactive: -14.7%.

Turning to `Cc1cccc(Nc2nn3c(=O)c4cc5c(cc4nc3s2)OCO5)c1`, the activation was inactive: 23.8%.

As for `CCc1ccc(Cn2c(CNS(=O)(=O)c3ccc([N+](=O)[O-])cc3)nc3cccnc32)cc1`, the activation was inactive: -21.5%.

Consider `COCCCNC(=O)c1c(-c2ccccc2)c(-c2ccccc2)nn(C)c1=O`, for which the activation is inactive: -14.9%.

For `COc1cc(NC(=O)c2nn(C)c3c2CS(=O)(=O)c2ccccc2-3)cc(OC)c1`, the activation was inactive: 3.81%.

Consider `CCn1nc(C)c(CCN(C)C(=O)Nc2ccc(C)c(Cl)c2)c1C`, for which the activation was inactive: 27%.

On to `COCCNC(=O)c1ccc(-n2c(-c3ccccc3)cc3c2CCC(C)C3)cc1` (stereo not given), for which the activation is inactive: -31.9%.

Take `Cc1ccc(C(=O)NCc2ccc3c(c2)CCN3C(=O)c2ccc(C)cc2)cc1`: the activation is inactive: -31.5%.

As for `Cc1cc(Nc2cccc(Cl)c2)nc2ccc(NC(=O)Cc3ccc(Cl)cc3)cc12`, the activation was inactive: -5.52%.

For the compound `CCN(CC)CCNC(=O)CN1C(=O)COc2ccc(S(=O)(=O)N3CCOCC3)cc21`, the activation was inactive: 5.7%.

Turning to `CCOC(=O)Cn1c(=O)n(CC2CCCO2)c2nc(-c3ccc(OCC)cc3)nc(C(N)=O)c21` (stereo not given), the activation is inactive: -0.694%.

In the case of `COc1ccc(NC(=O)c2sc3nc4c(cc3c2N)CCCCCC4)c(OC)c1`, the activation was inactive: 3.22%.

Turning to `COc1cc(N2C(=O)CSC23C(=O)N(Cc2cccc(F)c2)c2ccccc23)cc(OC)c1OC` (stereo not given), the activation was inactive: 9.86%.

Turning to `COc1ccccc1Nc1c2c(nc3ccc(NC(=O)c4ccc(OC)c(OC)c4)cc13)CCCC2`, the activation was inactive: 6.82%.

In the case of `COc1ccc(CCNC(=O)c2ccc3c(c2)CCN3S(=O)(=O)c2ccccc2)cc1OC`, the activation was inactive: -1.66%.

Take `CCOc1ccccc1NC(=O)Cn1c(=O)n(Cc2ccccc2)c(=O)c2c1c1cc(C)ccc1n2C`: the activation is inactive: -6.74%.

`Cc1ccc(-n2ncc(C(=O)NCc3ccccc3)c2C2CCN(C(=O)OC(C)(C)C)CC2)cc1`: the activation was inactive: -14.3%.

With `O=C(Nc1ccc2nc(SCCOc3ccccc3Cl)sc2c1)c1ccco1`, the activation is inactive: 7.2%.

As for `CCc1cccc(NC(=O)CSc2n[nH]c(-c3ccccc3Cl)n2)c1`, the activation was inactive: 45.7%.

Regarding `COc1cccc(-c2nn(C)c3sc(C(=O)NCCc4cccc(C)c4)cc23)c1`, the activation was inactive: -11.8%.

`COc1ccc(C)cc1NC(=O)c1c(C(=O)Nc2cccc(C)c2C)sc2nc(C)cc(=O)n12`: the activation was inactive: -3.38%.

With `Cc1nnc(N2CCN(c3cccc(Cl)c3)CC2)c2c1nnn2Cc1ccc(F)cc1`, the activation was inactive: -6.04%.

Take `CCCNC(=O)Cn1ncc2c3ccccc3n(CCC)c2c1=O`: the activation is inactive: -6.88%.

Regarding `Cn1c(NCCN(CCO)CCCc2ccc([N+](=O)[O-])cc2)cc(=O)n(C)c1=O`, the activation is inactive: 10%.

As to `CCOc1ccc(OCC)c(NC(=O)c2cnn(-c3ccc(F)cc3)c2C2CCN(C(=O)OC(C)(C)C)CC2)c1`, the activation was inactive: -11.4%.

As for `CCOC(=O)C1CCCN(C(=O)Cn2ncc3c(C)n(Cc4ccc(F)cc4)c(C)c3c2=O)C1` (stereo not given), the activation is inactive: 8.88%.

Take `CCOc1ccc(-n2c(C)nc3cc(C(=O)NCc4ccc(C)cc4)ccc32)cc1`: the activation was inactive: -24.4%.

In the case of `CCOc1ccc2c(c1)c(=O)c(C(=O)c1ccc3c(c1)OCO3)cn2Cc1cccc(F)c1`, the activation was inactive: -20.1%.

For `COc1ccc(-n2ccnc(NCc3cccs3)c2=O)cc1`, the activation is inactive: 42%.

Turning to `COC(=O)Nc1nc2ccc(C(=O)c3ccccc3)cc2[nH]1`, the activation is inactive: 0.501%.

As for `COc1ccc(-c2ccc(-c3noc(-c4cc(OC)cc(OC)c4)n3)c(OC)n2)cc1`, the activation was inactive: 0.104%.

With `CCOc1ccc(-c2nnc(SCC(=O)Oc3ccccc3)o2)cc1`, the activation was inactive: -2.29%.

Consider `CCn1c(=O)cc(SCC(=O)Nc2cc(Cl)ccc2OC)c2ccccc21`, for which the activation was inactive: -28%.

On to `O=c1c2c3c(sc2nnn1Cc1ccc(F)cc1)CCCC3`, for which the activation is inactive: -19.4%.

Consider `CC1CCCN(c2nc(-c3ccccc3O)nc3ccccc23)C1` (stereo not given), for which the activation was inactive: -0.659%.

As for `CC1CCn2c(nc3cc(C(=O)NCCc4ccccc4)ccc32)C1` (stereo not given), the activation is inactive: 0.478%.

For the compound `CCOc1ccc(C(=O)Nc2nc(-c3ccc(Br)cc3)ns2)cc1`, the activation is inactive: 0.378%.

Consider `COc1cccc(N2CCN(C(=O)c3cc4c(=O)n(Cc5cccnc5)ccc4nc3C)CC2)c1`, for which the activation was inactive: -10.2%.

With `COc1ccc(NC(=O)Cn2c(SCc3ccc(F)cc3)nc3cccnc32)c(OC)c1`, the activation was inactive: 0.841%.

With `Cc1ccc2c(=O)cc(C(=O)Nc3ccc(S(=O)(=O)N4CCCCC4)cc3)oc2c1`, the activation is inactive: -1.25%.

With `COC(=O)C(NC(=O)CCc1c(C)nc2cc(-c3cccc(F)c3)nn2c1C)C(C)C` (stereo not given), the activation was inactive: 41.3%.

With `COC(=O)c1ccccc1NC(=O)CCC(=O)N1CC(C)Sc2ccccc21` (stereo not given), the activation was inactive: -23.9%.

Regarding `CCOc1ccc(CNC(=O)Nc2ccc3c(c2)N(C)C(=O)c2ccccc2S3)cc1`, the activation was inactive: -20.7%.

With `COc1ccc(NC(=O)C2CCCN(c3cnccn3)C2)c(OC)c1` (stereo not given), the activation was inactive: -19.8%.

`CCC(Cc1ccccc1)NC(=O)CCS(=O)(=O)c1cc2c(cc1Cl)NC(=O)CO2` (stereo not given): the activation was inactive: -1.61%.

As to `CCC(C)n1c(=N)c(C(=O)NC2CCCC2)cc2c(=O)n3ccccc3nc21` (stereo not given), the activation is inactive: 0.993%.

For `Cc1ccc(NC(=O)CSc2cn(CC(=O)N3CCOCC3)c3ccccc23)cc1Cl`, the activation is inactive: 24.9%.

As to `Cc1ccc(NC(=O)CN2C(=O)CSc3ccc(S(=O)(=O)N(C)C)cc32)c(C)c1`, the activation is inactive: 5.24%.

As for `COc1ccc2sc(N(Cc3cccnc3)C(=O)c3cccs3)nc2c1`, the activation is inactive: 0.733%.

Consider `N=C(N)c1ccc(OCCCCCOc2ccc(C(=N)N)cc2)cc1`, for which the activation is inactive: -13.7%.

For the compound `Cn1c(=O)c2nc3ccc(NC(=O)C(F)(F)F)cc3nc2n(C)c1=O`, the activation is inactive: -14.3%.

`Cc1ccc2c(c1)C(c1ccccc1)N(C(=O)c1ccc(S(=O)(=O)N3CCCC3)cc1)CC(=O)N2` (stereo not given): the activation is inactive: -13.1%.

As to `Cc1ccc(-n2ncc3c(NC4CCCC4)ncnc32)cc1`, the activation was active: 112%.

For the compound `CCOC(=O)/C(C#N)=C/c1ccc(-c2ccccc2)o1`, the activation is inactive: -0.126%.

Turning to `O=S(=O)(c1ccccc1)c1nnn2c1nc(N1CCN(c3ccccc3)CC1)c1cc(Cl)ccc12`, the activation is inactive: 9.1%.

For `COc1ccc2sc(N(Cc3cccnc3)C(=O)C3COc4ccccc4O3)nc2c1` (stereo not given), the activation was inactive: -27.7%.

Take `CCCn1cc(S(=O)(=O)c2ccccc2)c(=O)c2cc(F)c(N3CCCCCC3)cc21`: the activation is inactive: -13.1%.

Consider `O=C(Cn1cc2c(n1)CCCC2)Nc1cc(C(F)(F)F)ccc1Cl`, for which the activation was inactive: -1.41%.

For the compound `Cc1cc(C)cc(NC(=O)c2sc3nc4n(c(=O)c3c2C)N=C(c2ccc(F)cc2)CS4)c1`, the activation is inactive: -9.61%.

`Cc1nc(SCc2ccccc2Cl)c(C#N)c(C)c1C`: the activation is inactive: -2.81%.

With `CC1(C)Oc2ccc(C#N)cc2[C@@H](N2CCCC2=O)[C@@H]1O`, the activation was inactive: 7.81%.

For `CSc1ccc(CCNC(=O)c2ccc3c(c2)nc2n3CCOC2)cc1`, the activation was inactive: -8.85%.

With `CCOC(=O)c1c(NC(=O)c2nc(SC)ncc2Cl)sc(C)c1C`, the activation is inactive: -12.8%.

For the compound `Cc1cc(NC(=O)CN2C(=O)CSc3ccc(S(=O)(=O)N(C)C)cc32)ccc1Br`, the activation is inactive: -29.9%.

As to `COc1ccccc1CNC(=O)c1cc2c(=O)n(Cc3cccs3)ccc2nc1C`, the activation was inactive: -15.8%.

Take `COc1ccc(Cl)cc1NC(=O)CSc1cn(CC(=O)N2CCCC2)c2ccccc12`: the activation was inactive: -11%.

For the compound `Cc1ccc(-n2c(SCC(=O)N3CCC(C)CC3)nc3c([nH]c4ccccc43)c2=O)cc1`, the activation was inactive: -12.4%.

As for `COc1cccc(-c2ccnc3[nH]n(-c4ccccc4)c(=O)c23)c1`, the activation is inactive: 2.91%.

Consider `CC(C)c1nnc(NC(=O)c2nc(S(=O)(=O)Cc3ccccc3)ncc2Cl)s1`, for which the activation was inactive: -21%.

Take `Cc1ccc(NC(=O)c2ccc(F)c(S(=O)(=O)N3CCc4ccccc4C3)c2)cc1F`: the activation was inactive: -2.56%.

Consider `COc1ccc2c(c1)c(=O)c(C(=O)c1ccc(Cl)cc1)cn2CC(=O)Nc1ccc2c(c1)OCO2`, for which the activation is inactive: 14.7%.

For `CCN(Cc1ccccc1)C(=O)CCS(=O)(=O)c1ccc2c(c1)oc(=O)n2C`, the activation is inactive: -10.3%.

As for `Cn1c(=O)n(CCCc2ccccc2)c(=O)c2c1nc1n2CCN1c1ccccc1`, the activation is inactive: -2.11%.

Regarding `CCOC(=O)c1scc(-c2ccc(C)cc2)c1S(=O)(=O)Nc1ccc(F)c(F)c1`, the activation was inactive: -6.42%.

The record behind these values is PubChem BioAssay AID1346428 (National Center for Advancing Translational Sciences (NCATS), 2018).
